Laboratory results from PubChem BioAssay AID624296 (National Center for Advancing Translational Sciences (NCATS), 2012).
Hit rate of the full screen: of about 350,000 compounds, about 9,900 (2.8%) were called active. Inconclusive means that the source gave no clear call. Such entries were picked first, then a sample of the others. Calls come from the whole dose curve; as a rule, active = well fitted activation curve with a large enough effect; inconclusive = small, poorly fitted or top-dose-only effect; inactive = no such curve, though single readings can be large or run the other way. No potency is given beside an inconclusive call; the fits are too rough.

Assay: A quantitative high throughput screen for small molecules that induce DNA re-replication in MCF 10a normal breast cells. For activity, positive = re-replication: % of control where 0% means no effect. Note: nearly all actives have a fitted effect of over 50% in size.
Details: MCF 10A DNA re-replication, Hoechst nuclear intensity, 48 h; activity, positive = re-replication: at 46.1 µM (top of the series)
Potency is the fitted concentration of half-maximal effect; tags give direction and shape of the fitted curve.

SMILES | Potency | activity, positive = re-replication
O=c1c(-c2ccc(O)cc2)coc2c(C3O[C@H](CO)[C@@H](O)[C@H](O)[C@H]3O)c(O)ccc12 (some centres undefined) | inconclusive [activator, partial curve] | –
O=C(/C=C/c1ccccc1)N1CCN(c2cccc(Cl)n2)CC1 | – | inactive: -0.847%
COc1ccc(/C=N/N2CCOCC2)cc1Cn1nc(C)c([N+](=O)[O-])c1C | inconclusive [activator, partial curve, poor fit] | –
CCN(C(=O)COc1ccc(C)nc1[N+](=O)[O-])C1CCS(=O)(=O)C1 (centres undefined) | – | inactive: 6.53%
CCOC(=O)CSC1=C(C#N)C(c2ccco2)C(C(=O)OCc2ccccc2)=C(C)N1 (centres undefined) | inconclusive [activator, single point] | –
COc1cc(-c2cc(C(=O)Nc3nc4ccccc4s3)c3ccccc3n2)cc(OC)c1OC | inconclusive [activator, partial curve, poor fit] | –
CN1CCN(C(=O)CCN2C(=O)/C(=C\c3ccc(Cl)cc3Cl)SC2=S)CC1 | inconclusive [activator, partial curve, poor fit] | –
Cn1c(C(=O)N2CCCC(C(=O)NCCc3ccccc3)C2)cc2sccc21 (centres undefined) | – | inactive: 1.16%
COc1ccc(-n2c(C)cc(C(=O)CN3C(=O)NC4(CCCc5sccc54)C3=O)c2C)cc1 (centres undefined) | inconclusive [activator, partial curve, poor fit] | –
Cc1cc(OCC(=O)NCC(c2ccc(F)cc2)N2CCOCC2)ccc1Cl (centres undefined) | – | inactive: 7.2%
Cc1onc(-c2ccccc2)c1C(=O)NC1CC1 | – | inactive: -18.7%
Cn1c(NCC(O)c2ccccc2)nc2c1c(=O)n(Cc1ccc(Cl)c(Cl)c1)c(=O)n2C (centres undefined) | inconclusive [activator, single point] | –
COCCNC(=O)c1cccc(OC2CCN(Cc3ccc(C(=O)OC)cc3)CC2)c1 | inconclusive [activator, single point] | –
O=C(COc1ccccc1)Nc1cccc(-c2nn[nH]n2)c1 | – | inactive: -5.69%
CCOC(=O)C1CCCN(C(=O)c2cc3c(=O)n4ccccc4nc3s2)C1 (centres undefined) | inconclusive [activator, full curve, poor fit] | –
Cc1ccc2c(c1)c(/C=C/c1cc[n+](C)cc1)c(C)n2C | – | inactive: 25.3%
c1ccc(CCNc2nc3ccccc3s2)cc1 | inconclusive [activator, partial curve, poor fit] | –
O=C(Cc1cccc(NC(=O)C2CCCN(C(=O)C3CCCC3)C2)c1)Nc1cccc(C(=O)N2CCCCC2)c1 (centres undefined) | inconclusive [activator, full curve, poor fit] | –
CCOc1ccccc1OCCCC(=O)Nc1cccc(S(=O)(=O)N2CCOCC2)c1 | inconclusive [activator, single point] | –
COc1ccc(C2=NN(C(=O)CCCC(=O)O)C(c3cccs3)C2)cc1OC (centres undefined) | inconclusive [activator, partial curve, poor fit] | –
COC(=O)c1c(C(=O)OC)c(-c2cccc(Cl)c2)n2c1CS(=O)C2 (centres undefined) | inconclusive [activator, single point] | –
Cc1ccc(NC(=O)c2c(Cl)n(C)c3ccccc23)cc1 | inconclusive [activator, single point] | –

SMILES | Potency | activity, positive = re-replication
COc1ccccc1C(=O)N(Cc1nc(-c2ccc(Cl)cc2)no1)C(C)C | – | inactive: -4.9%
CC(=O)Nc1ccc(S(=O)(=O)NCCSCc2c(Cl)cccc2Cl)cc1 | active: 23.1 µM | –
C=CCN1C(=O)c2cccc3c(N4CCCCC4)ccc(c23)C1=O | active: 16.4 µM | –
O=C(/C=C/c1ccco1)NC(=S)Nc1cccc([N+](=O)[O-])c1 | inconclusive [activator, single point] | –
O=S(=O)(NC1c2cccc3cccc(c23)C1Sc1ncccn1)c1ccc(Cl)cc1 (centres undefined) | inconclusive [activator, partial curve, poor fit] | –
Oc1ccccc1Nc1nc(NCc2ccco2)c2ccccc2n1 | inconclusive [activator, partial curve, poor fit] | –
N#Cc1ccccc1OCC(=O)NCC(c1cccs1)N1CCOCC1 (centres undefined) | – | inactive: -27.4%
Cc1cc(C)nc(NC(=O)CCCC(=O)O)c1 | – | inactive: -4%
COc1ccc(-c2cc(C(F)(F)F)n3ncc(C(=O)NCc4ccco4)c3n2)cc1 | inconclusive [activator, partial curve, poor fit] | –
O=C(NCCc1ccccc1)c1ccc2c(c1)N(Cc1ccccc1)CCS2 | inconclusive [activator, single point] | –
Oc1ccc(/C=N/N2CCCCC2)cc1O | inconclusive [activator, partial curve, poor fit] | –
O=C(c1ccccc1)c1ccc2nc(-c3ccco3)c(-c3ccco3)nc2c1 | inconclusive [activator, single point] | –
COc1ccc(-c2noc(CCC(=O)N3CCN(c4cccc(C)c4)CC3)n2)cc1 | inconclusive [activator, partial curve, poor fit] | –
CCCCCN1C/C=C\C(c2ccc(OC)cc2)N(Cc2ccc(F)cc2)C(=O)C1 (centres undefined) | inconclusive [activator, single point] | –
O=C(c1cccs1)N1CCCC(c2nc3c(nnn3Cc3ccccc3Cl)c(=O)[nH]2)C1 (centres undefined) | – | inactive: 29%
Cc1cccc(NC(=O)Cn2c(=O)n(Cc3ccccc3)c(=O)c3c(C)c(C)sc32)c1 | inconclusive [activator, single point] | –
C/C(=N/NS(=O)(=O)c1ccc(Cl)cc1)c1cccc(NC(=O)c2ccc(Cl)cc2Cl)c1 | inconclusive [activator, partial curve, poor fit] | –
Cc1ccccc1NC(=O)c1cccc2nc3ccccc3nc12 | inconclusive [activator, partial curve] | –
O=C(CCCN1C(=O)/C(=C/c2ccccc2Cl)SC1=S)NNC(=O)c1cccnc1 | inconclusive [activator, single point] | –
COc1ccc(C(=O)Oc2cccc3cccnc23)cc1[N+](=O)[O-] | inconclusive [activator, single point] | –
Cc1nnc(SCc2ccc(Cl)cc2)nc1/C=C/N(C)C | active: 18.4 µM | –
COc1cc(S(=O)(=O)NCCCN2CCOCC2)ccc1-n1cnnn1 | inconclusive [activator, partial curve, poor fit] | –

SMILES | Potency | activity, positive = re-replication
Cc1ccc([C@@H]2CC=C(C(=O)O)[C@H](c3ccc(F)cc3)N2S(=O)(=O)c2ccccc2C)cc1 | inconclusive [activator, single point] | –
COc1ccc2c(c1)[C@H]1[C@H](CO2)[C@H](c2ccccc2)[C@]2(C)C(=O)Nc3cc(OC)c(OC)cc3C(=O)N12 | inconclusive [activator, single point] | –
CCN(CC)Cc1cc(Nc2c3ccccc3nc3c4ccccc4n(C)c23)cc(CN(CC)CC)c1O | inconclusive [activator, partial curve, poor fit] | –
Cc1c(C(=O)NCCCN2CCCCC2)oc2ccc3c(c12)C(O)CC1(CCCCC1)O3 (centres undefined) | inconclusive [activator, partial curve, poor fit] | –
CC1CCN(C(=O)CCNS(=O)(=O)c2ccc3c(c2)c(=O)n(C)c(=O)n3C)CC1 | – | inactive: 1.77%
Cc1ccc(C)c(S(=O)(=O)N2CCN(C(=O)CCC(=O)c3cc(C)sc3C)CC2)c1 | – | inactive: 18.8%
COc1ccc(O)c(/C=N/NC(=O)c2ccc(OCc3cccc(Br)c3)cc2)c1 | inconclusive [activator, partial curve] | –
C=CC[C@@H](CC(=O)N(CCO)Cc1ccccc1)C(=O)N[C@@H](COC(=O)[C@H](CC=C)CC(=O)OC(C)(C)C)Cc1c[nH]c2ccccc12 | – | inactive: 13.5%
CCOc1ccc(CCNC(=O)COC(=O)c2cc([N+](=O)[O-])ccc2N2CCOCC2)cc1OCC | – | inactive: -6.88%
O=C1C(=O)N(Cc2cccnc2)C(c2cccc(F)c2)/C1=C(/O)c1ccc2c(c1)OCO2 (centres undefined) | – | inconclusive: -44.1% [activator]
COc1ccc(-c2nc(CS(=O)(=O)CC(=O)Nc3ccc(Cl)cc3)c(C)o2)cc1 | inconclusive [activator, partial curve, poor fit] | –
N#Cc1c(NCCCO)nc(-c2ccco2)c2c1CCCC2 | active: 18.4 µM | –
COC(=O)CSc1ccc(-c2nc3ccc(C)cc3[nH]2)cn1 | inconclusive [activator, single point] | –
Cc1ccc(C)c(C2=CSC3=NCCN23)c1 | inconclusive [activator, single point] | –
O=C(O)c1cc(N/N=C/c2ccc(-c3ccc(F)cc3)o2)ccc1Cl | active: 18.4 µM | –
Cc1nn(-c2ccccc2)c(N2CCCC2)c1/C=N/NC(=O)c1cc2ccccc2cc1O | inconclusive [activator, full curve, poor fit] | –
O=C1CCCCc2sc(Br)c([N+](=O)[O-])c2N1 | inconclusive [activator, single point] | –
Cc1c(Cl)cnc(NC(=O)COC(=O)C2CCCC2)c1Cl | – | inactive: -0.757%
CC(=NCCCn1ccnc1)c1c(C)[nH]n(-c2ccc([N+](=O)[O-])cc2)c1=O | inconclusive [activator, single point] | –
C/C(=N/NS(=O)(=O)c1ccccc1)c1ccc(NC(=O)C2CC2)cc1 | – | inactive: -7.52%
